Data published in PubChem BioAssay AID493208 (National Center for Advancing Translational Sciences (NCATS), 2011).
Screen size: about 44,000 compounds; about 340 (0.77%) were called active. Inconclusive results (about 5%) are left out. The call rests on the fitted dose curve; in most records, active means well fitted inhibition curve with a large enough effect; inconclusive means small, poorly fitted or top-dose-only effect; inactive means flat fitted curve, though single readings scatter. Some of the results follow.

Assay: Acumen qHTS Assay for Inhibitors of the mTORC1 Signaling Pathway in MEF (Tsc2-/-, p53-/-) Cells: Sytravon; further: nearly all actives have a fitted effect of over 50% in size;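 on activity change, negative = inhibition: plate controls were DMSO for no effect and rapamycin for full effect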
Conditions: phospho-rpS6 immunofluorescence/PI, 24 h; series mostly up to 38.3 µM; activity change, negative = inhibition: at the top concentration
How it was run: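 Tsc2-/-, p53-/- mouse embryonic fibroblasts (empty-vector line) exposed to compound 24 hrs at 37 C, fixed, immunostained for phospho-rpS6 and counterstained with propidium iodide. Acumen laser scanning gives % positive cells from Alexa 488/PI ratio, thresholded using 7.5 nM rapamycin; PI count gives viability.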
Potency means the concentration at half of the fitted maximal effect.

Structure (SMILES) | activity change, negative = inhibition | Potency
O=C(NC1CCCC1)c1ccc2c(c1)N(Cc1ccc(C(F)(F)F)cc1)C(=O)c1ccccc1S2 | inactive: -8.67% | 
Cc1ccccc1Cn1c(=O)n(Cc2ccc3c(c2)OCO3)c(=O)c2oc3ccccc3c21 | inactive: -2.69% | 
COc1ccc(-c2noc(CCC(=O)N(C)c3ccccc3C)n2)cc1 | inactive: -4.49% | 
COCCCNS(=O)(=O)c1cc(-c2onc(C)c2C)ccc1OC | inactive: 5.35% | 
COc1ccc(N2CCN(C(=O)CSc3n[nH]c(-c4ccccc4)n3)CC2)cc1 | inactive: 2.5% | 
CN(C)C(=O)c1ccc(NC(=O)Cn2nnnc2-c2ccccc2F)cc1 | inactive: -29.4% | 
COc1ccc(Nc2c3c(nc4ccc(NC(=O)/C=C/c5cc(OC)c(OC)c(OC)c5)cc24)CCCC3)cc1OC |  | active: 2.07 µM
O=C(Nc1ccc(-c2nc3cc(NC(=O)c4ccccc4Cl)ccc3o2)cc1)c1ccccc1Cl | inactive: 0.0807% | 
COc1ccccc1CNC(=O)Cc1c(C)c2c(cc(C)c3c(C)coc32)oc1=O | inactive: -10.2% | 
CN(C)c1ccc(CN(CC2CCCO2)C(=O)COc2ccccc2Cl)cc1 (stereo unspecified) | inactive: 3.38% | 
COc1ccc(N(CC(=O)NCc2ccc(F)cc2)S(=O)(=O)c2c(C)noc2C)cc1 | inactive: 0.638% | 
Cc1ccccc1C(=O)N(Cc1ccc(N(C)C)cc1)Cc1ccco1 | inactive: -12.4% | 
COc1ccc(OC)c(-c2nc3c(C#N)c[nH]n3c2NC2CCCCC2)c1 | inactive: -1.89% | 
CCCN(c1ccc(C(C)C)cc1)S(=O)(=O)c1ccc2c(c1)CCN2C(=O)CC | inactive: -7.33% | 
CN(C)c1ccc(CNC(=O)C2CCCN(S(=O)(=O)c3ccc4c(c3)oc(=O)n4C)C2)cc1 (stereo unspecified) | inactive: 0.49% | 
CCc1nonc1NC(=O)c1oc2ccc(F)cc2c1C | inactive: -2.08% | 
Cc1cccc(OCC(=O)NC(Cc2c[nH]c3ccccc23)C(=O)O)c1C (stereo unspecified) | inactive: 2.85% | 
COc1ccc(CCNC(=O)C(=O)NCC(c2ccc3c(c2)OCO3)N2CCOCC2)cc1 (stereo unspecified) | inactive: -10.5% | 
CC1=C(C(=O)Nc2ccc(Cl)cc2)C(c2ccccc2C)n2ncc(C(=O)Nc3ccc(C)cc3)c2N1 (stereo unspecified) | inactive: -18.7% | 
O=C(Nc1cc(F)ccc1F)N1CCC(CN2CCOCC2)CC1 | inactive: -9.66% | 
COc1ccc(-n2cc(-c3ccccc3)c3c(NC4CCCCC4)ncnc32)cc1 | inactive: 4.16% | 
COc1ccc(S(=O)(=O)NCCc2sc(C)nc2C)cc1F | inactive: -13.9% | 
Cc1ccc2c(CC(=O)Nc3cccc(Cl)c3C)coc2c1 | inactive: -0.655% | 
Cc1cccc(OCCCCn2c(C3CC(=O)N(c4ccccc4Cl)C3)nc3ccccc32)c1 (stereo unspecified) | inactive: -4.96% | 

Structure (SMILES) | activity change, negative = inhibition | Potency
Cc1ccc(-c2nc3cc(NC(=O)c4cc5ccccc5o4)ccc3o2)cc1 | inactive: 9.94% | 
CCN1C(=O)c2ccccc2Sc2ccc(NC(=O)COc3ccc(Cl)cc3)cc21 | inactive: 4.2% | 
CCOc1ccc(-n2c(SCC(=O)Nc3cccc(Cl)c3)nc3c(oc4ccccc43)c2=O)cc1 | inactive: 0.237% | 
COc1ccc(C(=O)CC2(O)C(=O)Nc3c(C)cccc32)c(OC)c1OC (stereo unspecified) | inactive: -18.5% | 
CN1CCN(c2ncc3c(n2)CCN(Cc2cc(Br)cs2)C3)CC1 | inactive: 0% | 
CCOc1ccc(-c2cnc(NCc3ccc(C(F)(F)F)cc3)n2C)cc1 |  | active: 18.5 µM
Cc1cccc(N2CCN(C(=O)c3cc4c(=O)oc5ccccc5c4s3)CC2C)c1 (stereo unspecified) | inactive: 16% | 
CC(C)CN(CC(C)C)C(=O)C1CCCN(S(=O)(=O)c2ccc3c(c2)oc(=O)n3C)C1 (stereo unspecified) | inactive: -1.51% | 
COc1cccc(NC(=O)c2nn(-c3ccc(C)cc3)c(=O)n(C)c2=O)c1 | inactive: -10.3% | 
Cc1cc(C)c2nc(N3CCCC(C(=O)NCc4cccc(Cl)c4)C3)sc2c1 (stereo unspecified) | inactive: -0.294% | 
COc1ccc(CNS(=O)(=O)c2cc3c(cc2C)n(C)c(=O)c(=O)n3C)cc1 | inactive: -15.2% | 
Cc1ccc(NS(=O)(=O)c2ccc3c(c2)NC(=O)C(C)C(=O)N3)cc1F (stereo unspecified) | inactive: 1.69% | 
Cc1ccc(NC(=O)CSc2cc(=O)n(C)c3ccc(Cl)cc23)c(Br)c1 | inactive: -2.68% | 
CC(NC(=O)c1ccc2c(c1)N(Cc1cccc(F)c1)C(=O)c1ccccc1S2)c1ccccc1 (stereo unspecified) | inactive: -12.2% | 
CCCCN(C)CCNC(=O)c1c(C)oc2ncnc(N3CCOCC3)c12 | inactive: -5.9% | 
Cc1ccc(NC(=O)c2cnn(-c3ccc(C)c(C)c3)c2C2CCN(C(=O)OC(C)(C)C)CC2)c(C)c1 | inactive: -2.51% | 
Cc1cccc(NC(=O)Cn2c(=O)n(CCC(C)C)c(=O)c3cccnc32)c1 | inactive: 0.544% | 
Cc1ccc(-n2nc(C(=O)N3CCN(c4cccc(C(F)(F)F)c4)CC3)c(=O)n(C)c2=O)cc1 | inactive: -6.41% | 
COc1cc(NC(=O)CN2C(=O)C(c3ccc(C)cc3)=NC23CCCCC3)cc(OC)c1 | inactive: -3.92% | 
Cc1oc2ccc(O)c(CN3CCOCC3)c2c1C(=O)Nc1ccccc1 | inactive: -1.19% | 
Cc1ccc(CNc2ccc(-c3nc(C(C)C)no3)cc2[N+](=O)[O-])cc1 | inactive: 1.81% | 
Cc1ccc(-n2c(=O)c3c(c4cc(C)ccc4n3C)n(CC(=O)Nc3c(C)cccc3C)c2=O)cc1 | inactive: -6.15% | 
O=C(CCSCCc1ccccn1)Nc1cc(F)ccc1F | inactive: 5.33% | 
CCC(CC)C(=O)Nc1cc(-c2cccc(C)c2)nn1-c1ccccc1 | inactive: 7.15% | 

Structure (SMILES) | activity change, negative = inhibition | Potency
COc1cccc(CNC(=O)C2CCN(C(=O)N3CCOc4ccc(Cl)cc43)CC2)c1OC | inactive: -21.9% | 
COc1ccc(Cl)cc1NC(=O)c1cc(C)nc2c1c(C)nn2-c1ccccc1 | inactive: -3.31% | 
O=c1c2sc3ccccc3c2n(Cc2ccccc2F)c(=O)n1Cc1ccccc1 | inactive: -17.7% | 
Cc1ccc(Cn2c(=O)n(Cc3ccco3)c(=O)c3sc4ccccc4c32)cc1 | inactive: 0.556% | 
O=c1c2cnn(-c3ccc(Cl)cc3)c2ncn1Cc1ccc(Cl)cc1Cl | inactive: -2.62% | 
Cc1nc2c(C(=O)NCc3ccccc3)cnn2c(C)c1Cc1ccc(F)cc1 | inactive: 9.48% | 
Cc1cccc(C(=O)Nc2cc3c(cc2N2CCCCC2)n(C)c(=O)c(=O)n3C)c1 | inactive: -0.156% | 
CC(=O)N1CCC2(CC1)OC(=O)C(C)=C2C(=O)Nc1cccc(Cl)c1C | inactive: 0.677% | 
CCCCC(=O)Nc1cc(C)c(O)c(-c2nc3ncccc3o2)c1 | inactive: 7.16% | 
O=C(CC1N=C2c3ccccc3N=C(SCc3ccccc3F)N2C1=O)NCCc1ccccc1 (stereo unspecified) | inactive: -3.16% | 
Cc1ccc(CCNC(=O)CCN2N=C(c3ccc(C)cc3)CCC2=O)cc1 | inactive: -6.49% | 
CCOc1ccc(C(=O)Nc2cc(NC(=O)c3ccco3)ccc2OC)cc1Br | inactive: -7.79% | 
Cc1ccc(Cl)cc1Nc1nc2ccccc2c2nncn12 | inactive: -18.7% | 
Cc1ccsc1CCN1C(=O)N(c2ccccc2)C(=O)C1CC(=O)Nc1ccc(F)cc1 (stereo unspecified) | inactive: -2.55% | 
COc1ccc(CCC(=O)NCc2ccc3c(c2)CCN3C(=O)c2ccc(F)cc2)cc1 | inactive: 1.38% | 
COc1ccc(-c2nc3cc(NC(=O)Cc4ccc(Cl)cc4)ccc3o2)cc1OC |  | active: 4.14 µM
CCOC(=O)c1ccc(NC(=O)Cn2nc(SC)c(S(=O)(=O)c3ccc(Cl)cc3)c2N)cc1 | inactive: -3.26% | 
CC(C)CC(=O)Nc1nnc(S(=O)(=O)N2CCCCCC2)s1 | inactive: -13.8% | 
Cc1cccc(C)c1NC(=O)c1ccc2c(c1)N(Cc1cccc(Cl)c1)C(=O)c1ccccc1S2=O (stereo unspecified) | inactive: -14.3% | 
Cc1ccc(C(=O)N(Cc2sccc2C)C2CCS(=O)(=O)C2)cc1 (stereo unspecified) | inactive: -2.64% | 
COc1ccc(OC)c(-n2nnc3c(sc4nc(C)c(Br)c(C)c43)c2=O)c1 | inactive: 0.814% | 
COc1ccccc1NC(=O)N1c2ccccc2Sc2ccccc21 | inactive: -25.1% | 
CCOc1cc(Br)cc(C2NC(=O)c3c(sc4c3CCN(C)C4)N2)c1O (stereo unspecified) | inactive: -0.389% | 
COCCCNC(=O)CCCn1c(SCC(=O)c2ccc(F)cc2)nc2c(sc3ccccc32)c1=O | inactive: 5.07% | 

Structure (SMILES) | activity change, negative = inhibition | Potency
COc1ccc(CNC(=O)CSc2ncc3c(n2)-c2ccc(Cl)cc2N(Cc2ccc(F)cc2)S3(=O)=O)cc1OC | inactive: -16.1% | 
O=C(CSc1c2c(nc3ccccc13)CCC2)Nc1ccc(F)cc1 | inactive: -22.3% | 
COc1ccc(Cn2c(C(=O)O)c(CNCc3ccco3)c3ccc(OC)cc32)cc1 | inactive: -0.0737% | 
COc1ccc(-n2cnc3cc(C(=O)NC4CCCC4)ccc32)cc1 | inactive: -10.5% | 
CCOC(=O)c1ccc(NC(=O)CSc2nnc3c4ccccc4n(CC)c3n2)cc1 | inactive: -1.25% | 
CN(C)c1ccc(CNC(=O)c2ccc(Cn3c(=O)c4cccn4c4cccnc43)cc2)cc1 | inactive: -2.72% | 
CC(C)(C)c1ccc(C(=O)NCC(c2ccco2)S(=O)(=O)c2ccc(F)cc2)cc1 (stereo unspecified) | inactive: -5.58% | 
CCc1ccc2ncc(C(=O)c3ccc(C)c(C)c3)c(N3CCC(C(N)=O)CC3)c2c1 | inactive: -1.23% | 
COc1ccc(C2=Nc3ccc(F)cc3NC(c3cccc(C(F)(F)F)c3)=N2)cc1 | inactive: 3.65% | 
CCCOc1ccc(C(=O)N(Cc2ccccc2Cl)C2CCS(=O)(=O)C2)cc1 (stereo unspecified) | inactive: -2.06% | 
Cc1ccc(Cn2c(CNC(=O)CCc3ccccc3)nc3cccnc32)cc1 | inactive: -3.07% | 
Cc1cccc(N2CCN(Cc3nnc(-c4ccccc4C)o3)CC2C)c1 (stereo unspecified) | inactive: -10.7% | 
COC(=O)c1ccccc1NC(=O)c1cnc(Nc2ccc(OC)cc2)c2ccccc12 | inactive: 5.03% | 
CCCCOc1cccc(C(=O)N(Cc2ccc(N(C)C)cc2)C2CCS(=O)(=O)C2)c1 (stereo unspecified) | inactive: -1.62% | 
O=C(Cn1cnc(S(=O)(=O)N2CCCC2)c1)Nc1cccc(Br)c1 | inactive: -17.7% | 
Cc1cc(-c2nc3ncccc3o2)ccc1NC(=O)c1ccccc1Br | inactive: -7.62% | 
Cc1ccc(CCNC(=O)CCCn2c(=O)c3ccccc3n(Cc3ccccc3C)c2=O)cc1 | inactive: -2.07% | 
O=C(COc1ccc(F)cc1)NCC(c1ccc(Cl)cc1)N1CCCCC1 (stereo unspecified) | inactive: -6.12% | 
COc1ccc(CCNC(=O)Cn2c(=O)n(-c3ccccc3)c(=O)c3c(C)c(C)sc32)cc1OC | inactive: 0.864% | 
CC(=O)N1c2ccc(S(=O)(=O)N3CCCCCC3)cc2CC1C(=O)NCc1ccccc1C (stereo unspecified) | inactive: 4.26% | 
CC(=O)N1CCOc2cc(S(=O)(=O)NCc3ccc(F)cc3)c(C)cc21 | inactive: -1.93% | 
COc1ccc(-n2nc(C(=O)N3CCN(c4ccccc4OC)CC3)c3c4ccccc4n(C)c3c2=O)cc1Cl | inactive: 0.385% | 
COc1ccccc1CNC(=O)CCCN1C(=O)CSc2c1c(C)nn2-c1ccccc1 | inactive: -0.0296% | 
CC(C)C1N=C2c3ccccc3N=C(SCC(=O)NCc3ccc(Cl)cc3)N2C1=O (stereo unspecified) | inactive: 0% | 
